Some of these densities may be calculated back from excess volumes.
Experiment: xn = mol fraction of the nth substance listed
Details: 101 kPa

Question: For `CCCC[n+]1ccn(C)c1.F[P-](F)(F)(F)(F)F` + CN(C)C=O, which mass density (293.15 K, x2 = 0) is on record?
Answer: 1368.9 kg/m3

Question: What about the mass density (293.15 K, x2 = 0.1002) of the same molecule?
Answer: 1349.3 kg/m3

Question: What about the mass density (293.15 K, x2 = 0.2) of the same molecule?
Answer: 1329.8 kg/m3

Question: And the mass density (293.15 K, x2 = 0.3002)?
Answer: 1309.5 kg/m3

Question: What about the mass density (293.15 K, x2 = 0.5) of the same molecule?
Answer: 1262.8 kg/m3

Question: And the mass density (293.15 K, x2 = 0.6)?
Answer: 1224.4 kg/m3

Question: What about the mass density (293.15 K, x2 = 0.7) of the same molecule?
Answer: 1181.9 kg/m3

Question: What about the mass density (293.15 K, x2 = 0.7999) of the same molecule?
Answer: 1129.2 kg/m3

Question: What about the mass density (293.15 K, x2 = 0.8999) of the same molecule?
Answer: 1055 kg/m3

Question: What about the mass density (298.15 K, x2 = 0) of the same molecule?
Answer: 1363.5 kg/m3

Question: What about the mass density (298.15 K, x2 = 0.1002) of the same molecule?
Answer: 1345.4 kg/m3

Question: What about the mass density (298.15 K, x2 = 0.2) of the same molecule?
Answer: 1325.6 kg/m3

Question: And the mass density (298.15 K, x2 = 0.3002)?
Answer: 1305.3 kg/m3

Question: What about the mass density (298.15 K, x2 = 0.3999) of the same molecule?
Answer: 1285.6 kg/m3

Question: What about the mass density (298.15 K, x2 = 0.5) of the same molecule?
Answer: 1258.6 kg/m3

Question: What about the mass density (298.15 K, x2 = 0.6) of the same molecule?
Answer: 1220 kg/m3

Question: And the mass density (298.15 K, x2 = 0.7)?
Answer: 1177.8 kg/m3

Question: And the mass density (298.15 K, x2 = 0.7999)?
Answer: 1124.7 kg/m3

Question: And the mass density (298.15 K, x2 = 0.8999)?
Answer: 1050.5 kg/m3

Question: And the mass density (303.15 K, x2 = 0)?
Answer: 1359.2 kg/m3

Question: What about the mass density (303.15 K, x2 = 0.1002) of the same molecule?
Answer: 1340.9 kg/m3

Question: And the mass density (303.15 K, x2 = 0.2)?
Answer: 1321.3 kg/m3

Question: What about the mass density (303.15 K, x2 = 0.3002) of the same molecule?
Answer: 1300.8 kg/m3

Question: What about the mass density (303.15 K, x2 = 0.3999) of the same molecule?
Answer: 1281.2 kg/m3

Question: What about the mass density (303.15 K, x2 = 0.5) of the same molecule?
Answer: 1254.1 kg/m3

Question: And the mass density (303.15 K, x2 = 0.6)?
Answer: 1215.5 kg/m3

Question: What about the mass density (303.15 K, x2 = 0.7) of the same molecule?
Answer: 1173.2 kg/m3

Question: What about the mass density (303.15 K, x2 = 0.7999) of the same molecule?
Answer: 1120.1 kg/m3

Question: What about the mass density (303.15 K, x2 = 0.8999) of the same molecule?
Answer: 1045.7 kg/m3

Question: What about the mass density (308.15 K, x2 = 0) of the same molecule?
Answer: 1355.5 kg/m3

Question: And the mass density (308.15 K, x2 = 0.1002)?
Answer: 1336.7 kg/m3

Question: What about the mass density (308.15 K, x2 = 0.2) of the same molecule?
Answer: 1317 kg/m3

Question: What about the mass density (308.15 K, x2 = 0.3999) of the same molecule?
Answer: 1276.9 kg/m3

Question: And the mass density (308.15 K, x2 = 0.5)?
Answer: 1249.8 kg/m3

Question: And the mass density (308.15 K, x2 = 0.7999)?
Answer: 1115.4 kg/m3

Question: And the mass density (308.15 K, x2 = 0.8999)?
Answer: 1040.9 kg/m3

Question: And the mass density (313.15 K, x2 = 0)?
Answer: 1352 kg/m3

Question: And the mass density (313.15 K, x2 = 0.1002)?
Answer: 1332.3 kg/m3

Question: And the mass density (313.15 K, x2 = 0.2)?
Answer: 1312.7 kg/m3

Question: And the mass density (313.15 K, x2 = 0.3002)?
Answer: 1292.3 kg/m3

Question: And the mass density (313.15 K, x2 = 0.3999)?
Answer: 1272.3 kg/m3

Question: And the mass density (313.15 K, x2 = 0.5)?
Answer: 1245.3 kg/m3

Question: And the mass density (313.15 K, x2 = 0.6)?
Answer: 1206.7 kg/m3

Question: And the mass density (313.15 K, x2 = 0.7)?
Answer: 1164.3 kg/m3

Question: And the mass density (313.15 K, x2 = 0.7999)?
Answer: 1111 kg/m3

Question: What about the mass density (313.15 K, x2 = 0.8999) of the same molecule?
Answer: 1036.3 kg/m3

Question: And the mass density (318.15 K, x2 = 0.1002)?
Answer: 1328.3 kg/m3

Question: And the mass density (318.15 K, x2 = 0.3002)?
Answer: 1288.1 kg/m3

Question: And the mass density (318.15 K, x2 = 0.3999)?
Answer: 1268.3 kg/m3

Question: What about the mass density (318.15 K, x2 = 0.5) of the same molecule?
Answer: 1241.1 kg/m3

Question: And the mass density (318.15 K, x2 = 0.7)?
Answer: 1159.9 kg/m3

Question: And the mass density (318.15 K, x2 = 0.7999)?
Answer: 1106.5 kg/m3

Question: What about the mass density (318.15 K, x2 = 0.8999) of the same molecule?
Answer: 1031.8 kg/m3

Question: With `CN(C)C=O` + CCCC[n+]1ccn(C)c1.F[P-](F)(F)(F)(F)F as the molecule, how does the mass density (293.15 K, x1 = 1) read?
Answer: 949.1 kg/m3

Question: What about the mass density (298.15 K, x1 = 1) of the same molecule?
Answer: 944.9 kg/m3

Question: And the mass density (308.15 K, x1 = 1)?
Answer: 935.5 kg/m3

Question: What about the mass density (313.15 K, x1 = 1) of the same molecule?
Answer: 930.7 kg/m3

Question: What about the mass density (318.15 K, x1 = 1) of the same molecule?
Answer: 925.9 kg/m3

Reference: a compilation of properties of binary mixtures (doi:10.1016/s1004-9541(08)60072-5)
